Laboratory results from the supplement of paper PMC3334620.
The full ranking holds about 33,000 sequences; the median of “E-score (-0.5 to 0.5)” is about -0.017, and the highest 2% start at about 0.3. Some of the results follow.

molecular target: T1, Sut1 (UniProt P53032); experiment: PBM E-score (8-mer binding enrichment) (E-score (-0.5 to 0.5)); higher = stronger / more preferred TF binding; most listed sequences are background and not binding sites; settings: protein concentration: 200 nM; construct: GST-full length
T1 sequence: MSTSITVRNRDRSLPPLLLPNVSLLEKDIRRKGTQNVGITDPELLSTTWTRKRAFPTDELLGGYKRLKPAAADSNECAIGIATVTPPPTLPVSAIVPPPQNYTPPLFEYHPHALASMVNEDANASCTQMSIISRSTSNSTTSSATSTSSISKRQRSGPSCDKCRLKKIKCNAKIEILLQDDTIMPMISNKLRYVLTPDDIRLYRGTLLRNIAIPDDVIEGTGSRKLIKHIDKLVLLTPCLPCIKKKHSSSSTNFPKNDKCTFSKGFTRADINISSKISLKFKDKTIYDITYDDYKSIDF
Method in brief: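 For each ungapped eight-base word taken together with its reverse complement, the Universal PBM Analysis Suite assigned an E-score. Binding data came from GST-tagged yeast transcription factors, applied at about 100-200 nM, on universal all-10-mer Agilent arrays made double-stranded by primer extension. Fluorescent anti-GST marked bound protein, and scans were normalised with masliner.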

| Sequence | PBM E-score |
| --- | --- |
| GTGCGAGA | -0.142 |
| TGATGAAA | 0.149 |
| GCAGGAAA | -0.129 |
| TCATTGGA | -0.0841 |
| CTCATTAA | 0.119 |
| CCCTATGA | -0.118 |
| CCATTGCG | -0.257 |
| ATAAGCAA | 0.0892 |
| TGAGTACA | 0.0972 |
| TGAGACAA | 0.0653 |
| AAGGCACT | -0.237 |
| GAACCATA | 0.0953 |
| CCTTGAAA | 0.0379 |
| ATGCGGTG | -0.305 |
| GAGCAACC | 0.0801 |
| GGCTGTGA | -0.208 |
| CGAACGGC | 0.0885 |
| ATTGAATA | 0.315 |
| ATTAGACG | 0.0981 |
| ATCCACAG | -0.0799 |
| ATTATGAG | 0.0109 |
| AACGAGGC | -0.11 |

| Sequence | PBM E-score |
| --- | --- |
| AAAGTTGT | 0.201 |
| AGTAGGGG | -0.0998 |
| AGTCTTCA | 0.0813 |
| GATTGCCA | -0.138 |
| CTGCGTTA | -0.0718 |
| AACCAAAT | 0.165 |
| ATAGACAT | -0.0466 |
| CTTCGGCC | -0.00176 |
| GCATGACA | -0.0823 |
| GGAGACCC | 0.0368 |
| CGGCTGCC | 0.0258 |
| GATTTAGC | 0.0679 |
| TCCAGTCA | -0.0307 |
| ACGGGCCG | -0.158 |
| AGGATGTG | -0.0478 |
| ATTTACTC | 0.222 |
| TAAACCAA | 0.219 |
| AGCGTAAT | 0.0798 |
| AGGTCGGA | 0.316 |
| CATGTATC | 0.195 |
| TGCTTAAA | 0.225 |
| GCCCTTCA | -0.0436 |

| Sequence | PBM E-score |
| --- | --- |
| CGGTATCA | 0.0143 |
| CCAACGGG | -0.0283 |
| AGAACATG | 0.0018 |
| GACGTCCC | -0.122 |
| CTTATCTA | 0.183 |
| ATGCGAAA | 0.107 |
| ATAAGTAG | 0.0173 |
| AGTGGGAC | -0.122 |
| ACACAGGT | -0.184 |
| CACAAGGG | -0.179 |
| AGGTGGCC | -0.208 |
| AATGAAGA | 0.0727 |
| AGATGCCA | -0.102 |
| GGCCCGCA | -0.113 |
| CCTTCCAG | -0.179 |
| AGCCGCGC | -0.0974 |
| CCATGACC | -0.322 |
| AGAGCGTG | -0.133 |
| AATTACGA | 0.19 |
| CCTTGACG | -0.177 |
| GAGTCTTA | -0.129 |
| GGTCTCCA | -0.16 |

| Sequence | PBM E-score |
| --- | --- |
| ATGTCATA | 0.0566 |
| CACACCAA | 0.0492 |
| GCCACCAA | -0.0938 |
| TCGTCGAA | -0.215 |
| AGCTTTTG | 0.068 |
| CTGCTCCA | -0.154 |
| GTTCTAGA | 0.0772 |
| AGCTACCT | -0.164 |
| TCTGGGAA | -0.153 |
| ACTCGTCG | -0.174 |
| TATTTTCA | 0.146 |
| ATTGCGAG | -0.119 |
| AATCGACA | 0.187 |
| CCTAGTTC | -0.0873 |
| AAGTATAG | 0.0511 |
| CAATGCGG | 0.0624 |
| AGTACAAC | 0.0862 |
| CACTAGGG | -0.368 |
| GGACACAC | -0.102 |
| CGAGCGCG | -0.00328 |
| ACTCAGGG | -0.227 |
| AAACGGTC | -0.0718 |

| Sequence | PBM E-score |
| --- | --- |
| CCTATGGC | -0.194 |
| AGAATGGG | -0.00215 |
| CTCCTTGC | -0.144 |
| GGCCGAAA | 0.195 |
| AACGAAGA | 0.102 |
| AAAACGTG | 0.0522 |
| GCGGTAAC | 0.113 |
| AAGATCGG | 0.111 |
| GCCGCGCA | -0.114 |
| ACTCAGGA | -0.0118 |
| GGCCGCAC | -0.141 |
| AATCCCGT | 0.149 |
| TCGTAACA | 0.103 |
| GATGTAAA | 0.115 |
| AGGATCTA | -0.204 |
| ATTACGGA | 0.353 |
| GGAAAAGA | 0.058 |
| CACTAAAA | 0.22 |
| CGTTAAAC | 0.192 |
| CCCTTAGC | -0.268 |
| GATCCGAA | 0.26 |
| AGAGGTAA | 0.108 |
